By IC50 is meant the dose at which the fit gives 50% viability; fits outside the tested doses are given as limits. AUC, from the same fit, is the share of area under the viability curve across the 256-fold dose range; it is 1 without any effect and falls as sensitivity rises. For some assays here: Where the top dose is marked as inferred, it was derived from the fitted curves, not read from the paper.
Columns and labels:
Assay in all cases: Viability of human cancer cell lines after 72 h of drug (GDSC screen)
[1] = compound: Nc1ccccc1NC(=O)c1ccc(CNC(=O)OCc2cccnc2)cc1 [MS-275]; conditions: top dose 5 µM; top dose inferred
Method: (§1)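 Human cancer cell lines in 384-well plates, medium with 10% serum, drug for 72 h over a 256-fold dose range (nine 2-fold or five 4-fold steps up to the top dose). Adherent lines were fixed and stained with the nucleic acid dye Syto60, suspension lines read with resazurin; signal relative to control wells, capped at 0 and 100%. One two-parameter sigmoid per drug and line, fitted in a mixed model over all curves with the slope shared within a line.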

[2] = compound: O=C(NC(COc1ccc2[nH]c(=O)[nH]c2c1)c1ccccc1)c1cccn(Cc2ccc(F)c(F)c2)c1=O [KIN001-244]; conditions: top dose 20 µM; top dose inferred
Method: as §1

[3] = compound: CCc1cncnc1N1CCN(Cc2nc3ccc(C(F)(F)F)cc3[nH]2)CC1 [PF-4708671]; conditions: top dose 10 µM; top dose inferred
Method: as §1

[4] = compound: CCNC(=O)C[C@@H]1N=C(c2ccc(Cl)cc2)c2cc(OC)ccc2-n2c(C)nnc21 [I-BET-762]; conditions: top dose 20 µM; top dose inferred
Method: as §1

[5] = compound: CCN1CCN(Cc2ccc(NC(=O)c3ccc(C)c(/C=C/c4cnc5[nH]ccc5c4OC)c3)cc2C(F)(F)F)CC1 [HG-6-64-1]; conditions: top dose 5.12 µM; top dose inferred
Method: as §1

[6] = compound: COc1cc2nccc(Oc3ccc(NC(=O)Nc4cc(C)on4)c(Cl)c3)c2cc1OC [AV-951]; conditions: top dose 0.128 µM; top dose inferred
Method: as §1

[7] = compound: CC(=O)Nc1cccc(-n2c(=O)n(C3CC3)c(=O)c3c(Nc4ccc(I)cc4F)n(C)c(=O)c(C)c32)c1 [Trametinib]; conditions: top dose 1 µM
Method: as §1

Which AUC [1] does the source give for U-87-MG (glioma, adherent) here?
Its AUC is 0.793.

What about the IC50 [1] of the same cell line?
Its IC50 is 2750 nM.

And the AUC [2]?
The AUC was 0.811.

And the IC50 [2]?
Its IC50 is 13000 nM.

And the AUC [3]?
The AUC was 0.959.

And the IC50 [3]?
Its IC50 is over 10000 nM.

What about the AUC [4] of the same cell line?
The AUC was 0.907.

And the IC50 [4]?
The IC50 was over 20000 nM.

What about the AUC [5] of the same cell line?
The AUC was 0.965.

And the IC50 [5]?
Its IC50 is over 5120 nM.

What about the AUC [6] of the same cell line?
The AUC was 0.975.

And the IC50 [6]?
The IC50 was over 128 nM.

And the AUC [7]?
The AUC was 0.579.

What about the IC50 [7] of the same cell line?
The IC50 was 107 nM.

Which AUC [1] does the source give for U-698-M (B-cell leukaemia, suspension) here?
The AUC was 0.893.

What about the IC50 [1] of the same cell line?
The IC50 was over 5000 nM.

And the AUC [2]?
Its AUC is 0.752.

What about the IC50 [2] of the same cell line?
Its IC50 is 6650 nM.

And the AUC [3]?
The AUC was 0.966.

And the IC50 [3]?
The IC50 was over 10000 nM.

What about the AUC [4] of the same cell line?
Its AUC is 0.933.

What about the IC50 [4] of the same cell line?
The IC50 was over 20000 nM.

And the AUC [5]?
The AUC was 0.599.

And the IC50 [5]?
The IC50 was 596 nM.

What about the AUC [6] of the same cell line?
Its AUC is 0.987.

And the IC50 [6]?
Its IC50 is over 128 nM.

What about the AUC [7] of the same cell line?
The AUC was 0.971.

What about the IC50 [7] of the same cell line?
The IC50 was over 1000 nM.

How did the AUC [1] turn out when UACC-257 (melanoma, adherent) was run?
Its AUC is 0.712.

What about the IC50 [1] of the same cell line?
Its IC50 is 1450 nM.

What about the AUC [2] of the same cell line?
Its AUC is 0.739.

What about the IC50 [2] of the same cell line?
The IC50 was 7250 nM.

What about the AUC [3] of the same cell line?
The AUC was 0.843.

What about the IC50 [3] of the same cell line?
The IC50 was 9810 nM.

What about the AUC [4] of the same cell line?
Its AUC is 0.882.

And the IC50 [4]?
Its IC50 is over 20000 nM.

What about the AUC [5] of the same cell line?
The AUC was 0.833.

What about the IC50 [5] of the same cell line?
The IC50 was 4490 nM.

And the AUC [6]?
The AUC was 0.973.

What about the IC50 [6] of the same cell line?
Its IC50 is over 128 nM.

What about the AUC [7] of the same cell line?
The AUC was 0.115.

And the IC50 [7]?
Its IC50 is under 3.91 nM.

VA-ES-BJ (soft tissue, adherent) was tested. Which AUC [1] did it give?
The AUC was 0.827.

What about the IC50 [1] of the same cell line?
The IC50 was 3270 nM.

And the AUC [2]?
Its AUC is 0.907.

What about the IC50 [2] of the same cell line?
Its IC50 is over 20000 nM.

What about the AUC [3] of the same cell line?
Its AUC is 0.943.

And the IC50 [3]?
Its IC50 is over 10000 nM.

And the AUC [4]?
The AUC was 0.966.

And the IC50 [4]?
The IC50 was over 20000 nM.

What about the AUC [5] of the same cell line?
Its AUC is 0.609.

And the IC50 [5]?
The IC50 was 649 nM.

And the AUC [6]?
Its AUC is 0.985.

And the IC50 [6]?
Its IC50 is over 128 nM.

What about the AUC [7] of the same cell line?
Its AUC is 0.863.

And the IC50 [7]?
Its IC50 is 941 nM.

With VAL (B-cell lymphoma, suspension) as the cell line, how does the AUC [1] read?
Its AUC is 0.54.

And the IC50 [1]?
Its IC50 is 403 nM.

And the AUC [2]?
The AUC was 0.723.

And the IC50 [2]?
Its IC50 is 5390 nM.

What about the AUC [3] of the same cell line?
Its AUC is 0.984.

And the IC50 [3]?
The IC50 was over 10000 nM.

What about the AUC [4] of the same cell line?
The AUC was 0.591.

What about the IC50 [4] of the same cell line?
The IC50 was 2220 nM.

What about the AUC [5] of the same cell line?
The AUC was 0.596.

What about the IC50 [5] of the same cell line?
The IC50 was 588 nM.

And the AUC [6]?
Its AUC is 0.975.

What about the IC50 [6] of the same cell line?
Its IC50 is over 128 nM.

What about the AUC [7] of the same cell line?
Its AUC is 0.982.

What about the IC50 [7] of the same cell line?
The IC50 was over 1000 nM.

Which results are given for VCaP (prostate, adherent)?
AUC [1]: 0.701; IC50 [1]: 1180 nM; AUC [2]: 0.741; IC50 [2]: 6290 nM; AUC [3]: 0.987; IC50 [3]: > 10000 nM; AUC [4]: 0.505; IC50 [4]: 1290 nM; AUC [5]: 0.936; IC50 [5]: > 5120 nM; AUC [6]: 0.986; IC50 [6]: > 128 nM; AUC [7]: 0.986; IC50 [7]: > 1000 nM

For WIL2-NS (lymphoid neoplasm, suspension), which AUC [1] is on record?
The AUC was 0.414.

What about the IC50 [1] of the same cell line?
Its IC50 is 191 nM.

And the AUC [2]?
The AUC was 0.831.

And the IC50 [2]?
The IC50 was 9570 nM.

And the AUC [3]?
The AUC was 0.991.

What about the IC50 [3] of the same cell line?
The IC50 was over 10000 nM.

What about the AUC [4] of the same cell line?
The AUC was 0.398.

And the IC50 [4]?
Its IC50 is 694 nM.

What about the AUC [5] of the same cell line?
Its AUC is 0.729.

What about the IC50 [5] of the same cell line?
The IC50 was 1240 nM.

What about the AUC [6] of the same cell line?
Its AUC is 0.964.

And the IC50 [6]?
The IC50 was over 128 nM.

What about the AUC [7] of the same cell line?
Its AUC is 0.979.

What about the IC50 [7] of the same cell line?
The IC50 was over 1000 nM.

What does the source list for WSU-DLCL2 (B-cell lymphoma, suspension)?
AUC [1]: 0.956; IC50 [1]: > 5000 nM; AUC [2]: 0.945; IC50 [2]: > 20000 nM; AUC [3]: 0.967; IC50 [3]: > 10000 nM; AUC [4]: 0.942; IC50 [4]: > 20000 nM; AUC [5]: 0.992; IC50 [5]: > 5120 nM; AUC [6]: 0.99; IC50 [6]: > 128 nM; AUC [7]: 0.881; IC50 [7]: 745 nM

How did the AUC [1] turn out when YT (lymphoid neoplasm, suspension) was run?
The AUC was 0.978.

What about the IC50 [1] of the same cell line?
Its IC50 is over 5000 nM.

And the AUC [2]?
The AUC was 0.88.

What about the IC50 [2] of the same cell line?
The IC50 was 15400 nM.

And the AUC [3]?
Its AUC is 0.956.

And the IC50 [3]?
Its IC50 is over 10000 nM.

What about the AUC [4] of the same cell line?
Its AUC is 0.573.

And the IC50 [4]?
The IC50 was 1920 nM.

And the AUC [5]?
Its AUC is 0.66.

And the IC50 [5]?
The IC50 was 825 nM.

What about the AUC [6] of the same cell line?
The AUC was 0.99.

And the IC50 [6]?
Its IC50 is over 128 nM.

What about the AUC [7] of the same cell line?
The AUC was 0.992.

And the IC50 [7]?
Its IC50 is over 1000 nM.

Which AUC [1] does the source give for no-10 (glioma, adherent) here?
The AUC was 0.691.

And the IC50 [1]?
Its IC50 is 1220 nM.

And the AUC [2]?
The AUC was 0.894.

And the IC50 [2]?
The IC50 was over 20000 nM.

What about the AUC [3] of the same cell line?
Its AUC is 0.976.

What about the IC50 [3] of the same cell line?
The IC50 was over 10000 nM.

And the AUC [4]?
Its AUC is 0.981.

What about the IC50 [4] of the same cell line?
The IC50 was over 20000 nM.

What about the AUC [5] of the same cell line?
The AUC was 0.912.

And the IC50 [5]?
Its IC50 is over 5120 nM.

What about the AUC [6] of the same cell line?
The AUC was 0.979.

What about the IC50 [6] of the same cell line?
The IC50 was over 128 nM.

What about the AUC [7] of the same cell line?
The AUC was 0.854.

What about the IC50 [7] of the same cell line?
The IC50 was over 1000 nM.
